This is an account of results in PMC5693993.

Assay [1] addresses T1, Unc93B1 overexpressed in a macrophage cell line (UniProt Q8VCW4).
T1 sequence: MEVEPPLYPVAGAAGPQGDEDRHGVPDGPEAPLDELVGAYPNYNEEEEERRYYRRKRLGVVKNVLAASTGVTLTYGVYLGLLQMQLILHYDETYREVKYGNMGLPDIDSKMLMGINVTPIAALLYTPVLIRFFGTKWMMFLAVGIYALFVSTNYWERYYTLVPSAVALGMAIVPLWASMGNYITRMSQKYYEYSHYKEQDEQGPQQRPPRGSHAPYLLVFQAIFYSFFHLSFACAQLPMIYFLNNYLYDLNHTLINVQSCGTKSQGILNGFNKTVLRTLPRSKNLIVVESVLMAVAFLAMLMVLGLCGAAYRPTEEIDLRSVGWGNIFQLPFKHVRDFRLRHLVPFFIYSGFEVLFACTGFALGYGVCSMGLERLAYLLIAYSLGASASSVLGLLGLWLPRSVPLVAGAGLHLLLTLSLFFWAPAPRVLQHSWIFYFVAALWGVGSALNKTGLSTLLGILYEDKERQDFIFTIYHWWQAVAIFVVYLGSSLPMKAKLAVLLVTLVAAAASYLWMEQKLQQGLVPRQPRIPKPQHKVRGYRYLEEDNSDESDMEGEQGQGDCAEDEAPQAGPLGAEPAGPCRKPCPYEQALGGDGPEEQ
In words: co-IP; immunoprecipitation of Unc93B1 from a macrophage cell line transduced to overexpress it; immunoblot. A general note: Immunoblotting shows a protein as a band on a membrane.

Assay [2] deals with T2, TLR9 (mouse (endogenous in BM-pDCs)) (UniProt Q9EQU3).
T2 sequence: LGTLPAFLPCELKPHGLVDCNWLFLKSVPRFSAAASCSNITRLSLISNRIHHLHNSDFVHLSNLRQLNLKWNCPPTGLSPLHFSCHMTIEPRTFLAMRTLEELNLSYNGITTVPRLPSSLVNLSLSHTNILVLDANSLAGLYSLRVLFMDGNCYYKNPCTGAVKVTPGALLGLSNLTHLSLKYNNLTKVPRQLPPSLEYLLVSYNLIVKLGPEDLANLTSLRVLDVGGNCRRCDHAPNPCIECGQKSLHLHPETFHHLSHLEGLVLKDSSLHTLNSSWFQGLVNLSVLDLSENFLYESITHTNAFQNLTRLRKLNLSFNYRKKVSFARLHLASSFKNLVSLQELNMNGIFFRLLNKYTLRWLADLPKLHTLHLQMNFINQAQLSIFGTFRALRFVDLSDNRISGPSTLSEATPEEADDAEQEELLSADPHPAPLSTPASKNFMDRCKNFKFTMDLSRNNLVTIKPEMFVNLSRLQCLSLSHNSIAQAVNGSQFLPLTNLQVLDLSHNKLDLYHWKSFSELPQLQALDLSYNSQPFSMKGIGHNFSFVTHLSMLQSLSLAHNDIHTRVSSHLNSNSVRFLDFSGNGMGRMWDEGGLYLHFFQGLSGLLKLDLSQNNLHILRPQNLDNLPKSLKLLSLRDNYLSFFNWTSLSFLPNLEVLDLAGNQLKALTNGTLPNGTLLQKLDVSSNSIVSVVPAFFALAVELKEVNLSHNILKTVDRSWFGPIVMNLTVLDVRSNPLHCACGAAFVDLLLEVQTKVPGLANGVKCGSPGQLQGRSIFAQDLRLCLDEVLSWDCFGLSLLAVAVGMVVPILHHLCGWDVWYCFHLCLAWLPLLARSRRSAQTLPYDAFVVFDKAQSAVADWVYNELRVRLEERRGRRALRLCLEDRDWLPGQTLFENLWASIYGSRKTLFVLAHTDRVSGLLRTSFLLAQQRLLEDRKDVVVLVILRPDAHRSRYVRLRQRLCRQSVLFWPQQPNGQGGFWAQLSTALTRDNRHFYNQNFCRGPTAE
The experiment in a line: co-IP; endogenous TLR7 or TLR9 immunoprecipitated from total spleen cells, cDCs or BM-pDCs; immunoblot of TLR7, TLR9, Unc93b1 and Arl8a/b; isotype-matched control Ab.

Assay [3] deals with T3, toll-like receptor 7 (TLR7) (mouse (endogenous in spleen cells, cDCs, BM-pDCs)) (UniProt P58681).
T3 sequence: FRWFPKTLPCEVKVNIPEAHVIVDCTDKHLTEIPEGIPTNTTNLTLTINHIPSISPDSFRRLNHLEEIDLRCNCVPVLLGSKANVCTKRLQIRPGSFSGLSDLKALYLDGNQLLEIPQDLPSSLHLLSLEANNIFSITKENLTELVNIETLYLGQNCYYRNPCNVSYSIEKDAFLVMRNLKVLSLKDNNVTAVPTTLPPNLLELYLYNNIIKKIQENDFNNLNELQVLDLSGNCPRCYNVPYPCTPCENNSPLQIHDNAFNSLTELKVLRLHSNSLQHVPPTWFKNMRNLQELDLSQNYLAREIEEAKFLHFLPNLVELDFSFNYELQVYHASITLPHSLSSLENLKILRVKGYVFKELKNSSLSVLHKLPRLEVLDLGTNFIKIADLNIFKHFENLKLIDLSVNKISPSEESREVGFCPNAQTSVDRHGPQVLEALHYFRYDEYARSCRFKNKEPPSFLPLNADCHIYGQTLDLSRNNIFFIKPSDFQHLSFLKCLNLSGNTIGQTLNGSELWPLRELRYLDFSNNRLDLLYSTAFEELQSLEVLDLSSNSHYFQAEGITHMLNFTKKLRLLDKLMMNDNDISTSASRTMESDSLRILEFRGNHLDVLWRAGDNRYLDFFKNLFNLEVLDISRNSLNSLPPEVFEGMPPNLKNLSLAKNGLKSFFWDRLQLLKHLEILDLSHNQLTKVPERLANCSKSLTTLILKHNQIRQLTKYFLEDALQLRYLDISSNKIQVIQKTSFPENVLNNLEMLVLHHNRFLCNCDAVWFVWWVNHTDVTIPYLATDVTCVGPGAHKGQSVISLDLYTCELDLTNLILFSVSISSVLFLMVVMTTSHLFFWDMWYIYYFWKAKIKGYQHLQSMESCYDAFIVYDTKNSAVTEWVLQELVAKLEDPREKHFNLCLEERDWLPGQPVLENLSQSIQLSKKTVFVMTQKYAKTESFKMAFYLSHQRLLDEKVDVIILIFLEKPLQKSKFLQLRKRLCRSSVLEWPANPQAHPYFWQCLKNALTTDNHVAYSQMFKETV
Described as above.

Assay [4] addresses T4, TNF receptor-associated factor 6 (TRAF6) (mouse (endogenous in BM-pDCs)), P70196.
T4 chain: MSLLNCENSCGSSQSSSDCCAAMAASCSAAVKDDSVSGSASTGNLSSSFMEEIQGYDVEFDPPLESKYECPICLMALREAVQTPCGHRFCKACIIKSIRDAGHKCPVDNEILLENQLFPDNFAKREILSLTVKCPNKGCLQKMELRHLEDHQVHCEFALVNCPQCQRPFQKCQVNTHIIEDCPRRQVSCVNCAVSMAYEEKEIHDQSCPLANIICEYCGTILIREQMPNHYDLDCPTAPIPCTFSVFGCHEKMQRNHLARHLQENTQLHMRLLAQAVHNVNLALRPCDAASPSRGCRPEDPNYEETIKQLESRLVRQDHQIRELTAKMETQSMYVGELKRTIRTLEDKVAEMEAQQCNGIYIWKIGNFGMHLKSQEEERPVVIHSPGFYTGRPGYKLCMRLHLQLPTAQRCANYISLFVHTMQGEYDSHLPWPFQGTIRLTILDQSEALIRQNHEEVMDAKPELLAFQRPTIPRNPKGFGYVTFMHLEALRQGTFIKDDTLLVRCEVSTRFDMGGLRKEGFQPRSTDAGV
The experiment in a line: co-IP; WT BM-pDCs stimulated with 25 μg/mL polyU for the indicated times, lysed, immunoprecipitation with Ab against TRAF6 or goat IgG control; immunoblot. The note with it: remark: other sources report otherwise.

The target in assay [5] is T5, TNF receptor-associated factor 6 (TRAF6) (mouse (endogenous in BM-pDCs)) (UniProt P70196).
T5 sequence: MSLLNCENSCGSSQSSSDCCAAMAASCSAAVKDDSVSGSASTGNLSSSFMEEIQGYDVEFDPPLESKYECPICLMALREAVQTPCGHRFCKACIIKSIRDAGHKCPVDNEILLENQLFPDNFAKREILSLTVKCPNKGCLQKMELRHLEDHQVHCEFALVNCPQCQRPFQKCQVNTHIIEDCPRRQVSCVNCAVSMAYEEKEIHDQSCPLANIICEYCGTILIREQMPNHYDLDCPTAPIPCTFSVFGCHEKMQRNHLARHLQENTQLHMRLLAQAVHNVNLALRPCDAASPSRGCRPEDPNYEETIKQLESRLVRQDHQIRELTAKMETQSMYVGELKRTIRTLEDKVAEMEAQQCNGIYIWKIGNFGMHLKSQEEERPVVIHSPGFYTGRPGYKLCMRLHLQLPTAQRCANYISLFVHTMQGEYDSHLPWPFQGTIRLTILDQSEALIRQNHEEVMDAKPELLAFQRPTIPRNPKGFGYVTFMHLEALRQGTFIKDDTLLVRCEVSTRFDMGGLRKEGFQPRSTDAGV
The experiment in a line: co-IP; Arl8b Gt/Gt BM-pDCs stimulated with 25 μg/mL polyU for the indicated times, lysed, immunoprecipitation with Ab against TRAF6 or goat IgG control; immunoblot.

No constants are given. Whether binding was seen depends on the method and setting. Binding seen in cells or lysates may run through a third protein. Some binding calls cover weakened binding; strength is not graded here.

B1: Arl8a (protein, UniProt Q8VEH3 1-186)
chain: MIALFNKLLDWFKALFWKEEMELTLVGLQYSGKTTFVNVIASGQFNEDMIPTVGFNMRKITKGNVTIKLWDIGGQPRFRSMWERYCRGVSAIVYMVDAADQEKIEASKNELHNLLDKPQLQGIPVLVLGNKRDLAGALDEKELIEKMNLSAIQDREICCYSISCKEKDNIDITLQWLIQHSKSRRS
B1: the binding result in assay [1] is “binds”; in assay [2], “binds weakly”; in assay [3] it was “binds”.

B2: TRAF3, Q60803 1-567 (protein)
chain: MESSKKMDAAGTLQPNPPLKLQPDRGAGSVLVPEQGGYKEKFVKTVEDKYKCEKCRLVLCNPKQTECGHRFCESCMAALLSSSSPKCTACQESIIKDKVFKDNCCKREILALQVYCRNEGRGCAEQLTLGHLLVHLKNECQFEELPCLRADCKEKVLRKDLRDHVEKACKYREATCSHCKSQVPMIKLQKHEDTDCPCVVVSCPHKCSVQTLLRSELSAHLSECVNAPSTCSFKRYGCVFQGTNQQIKAHEASSAVQHVNLLKEWSNSLEKKVSLLQNESVEKNKSIQSLHNQICSFEIEIERQKEMLRNNESKILHLQRVIDSQAEKLKELDKEIRPFRQNWEEADSMKSSVESLQNRVTELESVDKSAGQAARNTGLLESQLSRHDQMLSVHDIRLADMDLRFQVLETASYNGVLIWKIRDYKRRKQEAVMGKTLSLYSQPFYTGYFGYKMCARVYLNGDGMGKGTHLSLFFVIMRGEYDALLPWPFKQKVTLMLMDQGSSRRHLGDAFKPDPNSSSFKKPTGEMNIASGCPVFVAQTVLENGTYIKDDTIFIKVIVDTSDLPDP
For the molecule B2, in assay [4], the binding result is on record as “binds”.

B3: TRAF3 (protein, UniProt Q60803 1-567)
chain: MESSKKMDAAGTLQPNPPLKLQPDRGAGSVLVPEQGGYKEKFVKTVEDKYKCEKCRLVLCNPKQTECGHRFCESCMAALLSSSSPKCTACQESIIKDKVFKDNCCKREILALQVYCRNEGRGCAEQLTLGHLLVHLKNECQFEELPCLRADCKEKVLRKDLRDHVEKACKYREATCSHCKSQVPMIKLQKHEDTDCPCVVVSCPHKCSVQTLLRSELSAHLSECVNAPSTCSFKRYGCVFQGTNQQIKAHEASSAVQHVNLLKEWSNSLEKKVSLLQNESVEKNKSIQSLHNQICSFEIEIERQKEMLRNNESKILHLQRVIDSQAEKLKELDKEIRPFRQNWEEADSMKSSVESLQNRVTELESVDKSAGQAARNTGLLESQLSRHDQMLSVHDIRLADMDLRFQVLETASYNGVLIWKIRDYKRRKQEAVMGKTLSLYSQPFYTGYFGYKMCARVYLNGDGMGKGTHLSLFFVIMRGEYDALLPWPFKQKVTLMLMDQGSSRRHLGDAFKPDPNSSSFKKPTGEMNIASGCPVFVAQTVLENGTYIKDDTIFIKVIVDTSDLPDP
In the case of B3, in assay [5], the binding entry is on record as “no binding (condition: in Arl8b Gt/Gt pDCs)”.

B4: Unc93B1 (endogenous) (protein, UniProt Q8VCW4 1-598)
chain: MEVEPPLYPVAGAAGPQGDEDRHGVPDGPEAPLDELVGAYPNYNEEEEERRYYRRKRLGVVKNVLAASTGVTLTYGVYLGLLQMQLILHYDETYREVKYGNMGLPDIDSKMLMGINVTPIAALLYTPVLIRFFGTKWMMFLAVGIYALFVSTNYWERYYTLVPSAVALGMAIVPLWASMGNYITRMSQKYYEYSHYKEQDEQGPQQRPPRGSHAPYLLVFQAIFYSFFHLSFACAQLPMIYFLNNYLYDLNHTLINVQSCGTKSQGILNGFNKTVLRTLPRSKNLIVVESVLMAVAFLAMLMVLGLCGAAYRPTEEIDLRSVGWGNIFQLPFKHVRDFRLRHLVPFFIYSGFEVLFACTGFALGYGVCSMGLERLAYLLIAYSLGASASSVLGLLGLWLPRSVPLVAGAGLHLLLTLSLFFWAPAPRVLQHSWIFYFVAALWGVGSALNKTGLSTLLGILYEDKERQDFIFTIYHWWQAVAIFVVYLGSSLPMKAKLAVLLVTLVAAAASYLWMEQKLQQGLVPRQPRIPKPQHKVRGYRYLEEDNSDESDMEGEQGQGDCAEDEAPQAGPLGAEPAGPCRKPCPYEQALGGDGPEEQ
B4: in assay [3], the binding result is “binds”.

B5: Arl8b (protein, UniProt Q9CQW2 1-186)
chain: MLALISRLLDWFRSLFWKEEMELTLVGLQYSGKTTFVNVIASGQFSEDMIPTVGFNMRKVTKGNVTIKIWDIGGQPRFRSMWERYCRGVNAIVYMIDAADREKIEASRNELHNLLDKPQLQGIPVLVLGNKRDLPNALDEKQLIEKMNLSAIQDREICCYSISCKEKDNIDITLQWLIQHSKSRRS
Regarding B5, the binding result is “binds” in assay [1], “binds weakly” in assay [2] and “binds” in assay [3].
